Some of the results follow.
B1: chr10:84137372:84137373:+_ENSMUSG00000034453_ENSMUST00000077175|mus_mus|motif|central (ssRNA)
RNA: GGGAGUUCUACAGUCCGACGAUCGUAAGAGAGCUCUUCUCCACAUAAUAAAUUCACAUCUUCUACUCCCAAGUUCCCAGCGGACUUAAUAAUGGGUCCAUCUUCCAUGUCAGUUGUUAUAUGUGUCAUGAGGGCCAAGUUCUUCAACAGAGGAUUGAGCAUCA
B2: chr7:7679991:7679992:-_ENSG00000106399_ENST00000396682|hu_hu|hu_hu_hu_mus_False|28_58 (ssRNA)
RNA: GGGAGUUCUACAGUCCGACGAUCUGGGAUGAAUCUUUUCCAGCUUCCCCACGAAGCACACGGGCCGGUCGAUAUACUGAGCUAGCAUGCUGGCGUUGACGCGCGCUCUGGGCAAGUGCAUUAUGUCCUCCAUGAUUCUGCCGCCAACAGAGGAUUGAGCAUCA
B3: chr1:58468927:58468928:-_ENSMUSG00000026034_ENSMUST00000148330|mus_mus|mus_mus_mus_hu_False|1_48 (ssRNA)
RNA: GGGAGUUCUACAGUCCGACGAUCAAUUACUGAAAAAGAUGUUCAUUACCUUAGCUAUGUACUUAAUGAACCAAAUUACCCAAACAACAUAAAAUGUGCAAUAUAAAAAUGUUAAGAAUUUACAAAGCUGUACAAAAAGACUGACAACAGAGGAUUGAGCAUCA
B4: chr16:32614670:32614671:+_ENSMUSG00000022797_ENSMUST00000023486|mus_mus|motif|central (ssRNA)
RNA: GGGAGUUCUACAGUCCGACGAUCUGCAGCCAGUUUCAUCUCCACAUGACUGUUAUCUCCAUCUACUUGCCGAGCAAGGCGGAACCGGGUGUAUGACAAUGGUUCCCCACCAAACAAGUUAGAGAAUGCUGAUCUGGCUUGAUCCAACAGAGGAUUGAGCAUCA
B5: 55044860_55044980_3730_CDS_ENSMUSG00000025982_ENSMUST00000027127|mouse|control|control (ssRNA)
RNA: GGGAGUUCUACAGUCCGACGAUCUACAUGGGGAGAUGUCUCAAACACAUUAGGCCACACAUAGUUCAGUAAGUGAUUCAGAGAAUCCUCACAGCCAAAUCCGUAAACACCAAGUGACAUGUGCUGCACCACUGCACUCGCUGUCAACAGAGGAUUGAGCAUCA
B6: chr7:54106310:54106311:+_ENSMUSG00000063229_ENSMUST00000048209|mus_mus|FALSE|FALSE (ssRNA)
RNA: GGGAGUUCUACAGUCCGACGAUCCCUCUCUCCCAUCAGGUAACGGAACCGCGCUGAAUCCAGAUUGCAACCACUUCCAAUUACUCGGUUUUUGGGAAAGCCACUGAUUUUCCAAGCCACGUAGGUCAAGAUAUCCACUGGAUUCAACAGAGGAUUGAGCAUCA
B7: chr19:8913615:8913616:-_ENSMUSG00000071658_ENSMUST00000096259|mus_hu|mus_mus_mus_hu_False|1_1 (ssRNA)
RNA: GGGAGUUCUACAGUCCGACGAUCAGGGUACCAAAACCUUCUGCCUGAAAUGGGUGCCCCACCCAGUAGGGAGUUGCAGCUGAAAGUAUCUGAUGCAGAAGCAGUGACUAUACGAAAGGAGGCCCCUGGGGAGGGCCCGAGAUCCAACAGAGGAUUGAGCAUCA
B8: chr1:213178640:213178641:-_ENSG00000174606_ENST00000366962|hu_hu|FALSE|FALSE (ssRNA)
RNA: GGGAGUUCUACAGUCCGACGAUCUGCUACGCAGAUUGCAGGGCAGGCAGCAUAUGGAAUUUUGGGCUGUAAGAGUAAAACUAAUCCAACAUUGUCUCUGUCCAACAGAGAAAUAUCAGGGCGGAAGAAUUCCACUGGGUUCACCAACAGAGGAUUGAGCAUCA
B9: chr3:176740097:176740098:-_ENSG00000177565_ENST00000430069|hu_mus|hu_hu_hu_mus_True|18_18 (ssRNA)
RNA: GGGAGUUCUACAGUCCGACGAUCUGUUUUGUAUACCACAAAAGGAGGCACUUUCAGUAUCUGCAAAAGGUGUUUAGUCCUAAAACAUACUCACCUAGAGGAUAACUCAGGAAAACAUCAAUACAAUCUCUAAGACCUACUCCACAACAGAGGAUUGAGCAUCA
B10: chr3:95657547:95657548:-_ENSMUSG00000015748_ENSMUST00000015892|mus_hu|motif|central (ssRNA)
RNA: GGGAGUUCUACAGUCCGACGAUCCUUUGACAGUGCCAUUUUUCAGGAAAAAGAGAACAAUAGCUCAAACAGGACUCAAUACGGCACCUCACAAACUUCAGCCCCUGAGACGGAGCCCGAACGUUACACCGGAACCGGAAACCUCAACAGAGGAUUGAGCAUCA
B11: chr11:50112788:50112789:-_ENSMUSG00000020368_ENSMUST00000020637|mus_mus|motif|central (ssRNA)
RNA: GGGAGUUCUACAGUCCGACGAUCGUCGGAUGUCAUGGACCAGAGCUCCAAACCAAUAGCACUGAAAGGAGUCAUCUUAAAAGGUUCGGGGUCUUCAAAGAAAUCUGGAUUUGGUAUUUUCCUUGGUUUCCAGAUUCCCUGGUACAACAGAGGAUUGAGCAUCA
B12: chr17:57724784:57724785:+_ENSG00000141367_ENST00000269122|hu_hu|motif|central (ssRNA)
RNA: GGGAGUUCUACAGUCCGACGAUCUUUCAUUUCAAUGUUAAAAAUCUGAAGAGUUUUCCCAGCUUUCAGUGCAAUUACUUUGCGGGCUGGAUUCAUGAUGGCGCUGUCUGCUGAAAUUGGUCUUCGAAUUGGAUUACUUGGGUCCAACAGAGGAUUGAGCAUCA
B13: chr12:80258887:80258888:-_ENSMUSG00000021124_ENSMUST00000055262|mus_hu|motif|central (ssRNA)
RNA: GGGAGUUCUACAGUCCGACGAUCGUUUACCAGUCUACUCUUGGUACGUUCUAACUGGUCUCGUUGUUCCCCCAGCUCUUCGGUGAUUUCUGAGCCAAUCUGGUCAGUCUCUGUGGCAAUCCGAUGAGAACGUUCAAUACUUUGCAACAGAGGAUUGAGCAUCA
B14: chr1:155330963:155330964:-_ENSMUSG00000042699_ENSMUST00000042141|perfect_dup|motif|central (ssRNA)
RNA: GGGAGUUCUACAGUCCGACGAUCCCCUUCUACUCGAACCUCACACAUGAAUUUCUGUCUGUUUUUGUUUCCUACUGCUCGGAUUUCAUAGGCUGGAGUCAUCUUCCUUUUGCCACACCAGGCAUACAGAAAAUUUUUAAUGUCCAACAGAGGAUUGAGCAUCA

The binders below were run against T1, UNK ZnF1-3 (human, UniProt Q9C0B0 31-174) (assay: nsRBNS (natural sequence RNA bind-n-seq); RBNS binding buffer (assumed for nsRBNS): 25 mM Tris pH 7.5, 150 mM KCl, 3 mM MgCl2, 0.01% Triton X-100, 500 ug/ml BSA, 20 U/ml SUPERase-In, 4 C; UNK is unkempt and MSI1 is Musashi-1; names of the RNAs are library labels; protein concentration not given here; high values mean tight binding).
T1 sequence: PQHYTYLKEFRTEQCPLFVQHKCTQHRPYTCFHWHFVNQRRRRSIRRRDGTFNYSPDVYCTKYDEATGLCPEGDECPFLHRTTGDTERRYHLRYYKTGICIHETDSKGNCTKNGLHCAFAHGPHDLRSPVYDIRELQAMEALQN
Binder B1 has a binding signal of 1.03 enrichment R.
Binder B2 has a binding signal of 0.615 enrichment R.
B3 was tested, and the binding signal was 1.59 enrichment R.
B4 showed a binding signal of 0.741 enrichment R.
In the case of B5, the binding signal is reported as 0.911 enrichment R.
For B6, the binding signal was 0.985 enrichment R.
B7 gave a binding signal of 1.4 enrichment R.
B8 gave a binding signal of 1.53 enrichment R.
In the case of B9, the binding signal is reported as 0.885 enrichment R.
Binder B10 has a binding signal of 1.34 enrichment R.
Work on B11 yielded a binding signal of 0.696 enrichment R.
B12 showed a binding signal of 0.81 enrichment R.
In the case of B13, the binding signal is reported as 0.595 enrichment R.
In the case of B14, the binding signal is reported as 0.93 enrichment R.
